The campaign covered roughly 3,200 compounds. About 75 (2%) showed an effect of 50% or more. This is one part of the list.
tested on: T1, S. aureus MSSA476; set-up: species or system S. aureus MSSA476 (TSB) or V. cholerae SAD30 (LB); 384-well bacterial growth screen at 25 uM, OD600 relative to DMSO control; details: relative growth, OD600, TSB; 25 µM; inhibitor
T1 construct: MSSA476

Point of comparison: `C=CC(=O)NCc1ccc(-n2cccn2)cc1` [1-M07, N-{[4-(1H-pyrazol-1-yl)phenyl]methyl}prop-2-enamide], “% of control remaining” value 108.308%. Against it:
- CC(Cl)C(=O)N[C@H]1C[C@H](Cn2cncn2)C1 (stereo partly shown) [6-D20, 2-chloro-N-[(1r,3r)-3-[(1H-1,2,4-triazol-1-yl)methyl]cyclobutyl]propanamide] — higher, 115.756%
- C=CC(=O)NC(C)c1ccc(S(=O)(=O)N(C)C)cc1 (stereo not shown) [3-A20, N-{1-[4-(dimethylsulfamoyl)phenyl]ethyl}prop-2-enamide] — higher, 127.122%
- O=C1C=CC(=O)N1CCc1ccccc1F [10-G03, 1-[2-(2-fluorophenyl)ethyl]-2,5-dihydro-1H-pyrrole-2,5-dione] — lower, 4.375%
- CC(C)Cn1c(N)c(C(=O)CCl)c(=O)[nH]c1=O [10-F08, 6-amino-5-(2-chloroacetyl)-1-(2-methylpropyl)-1,2,3,4-tetrahydropyrimidine-2,4-dione] — higher, 115.625%
- O=C(CCl)NC(CC1CC1)c1ccc(Cl)cn1 (stereo not shown) [6-F19, 2-chloro-N-[1-(5-chloropyridin-2-yl)-2-cyclopropylethyl]acetamide] — lower, 93.561%
- Cc1cccc(C)c1NC(=O)C(C#N)=Cc1ccc(OC(F)F)cc1 [8-A11, 2-cyano-3-[4-(difluoromethoxy)phenyl]-N-(2,6-dimethylphenyl)prop-2-enamide] — lower, 92.9461%
- CC(Cl)C(=O)NCC1CN(S(C)(=O)=O)C1 (stereo not shown) [7-C04, 2-chloro-N-[(1-methanesulfonylazetidin-3-yl)methyl]propanamide] — lower, 101.099%
- O=C(CCl)NCc1cc(C(F)F)no1 [6-H08, 2-chloro-N-{[3-(difluoromethyl)-1,2-oxazol-5-yl]methyl}acetamide] — lower, 107.561%
- CCc1ccc(-c2nn(-c3ccccc3)cc2C=C(C#N)C(N)=O)cc1 [8-O22, 2-cyano-3-[3-(4-ethylphenyl)-1-phenyl-1H-pyrazol-4-yl]prop-2-enamide] — lower, 96.9295%
- CC(Cl)C(=O)NCc1ccc2cnn(C)c2c1 (stereo not shown) [7-D21, 2-chloro-N-[(1-methyl-1H-indazol-6-yl)methyl]propanamide] — lower, 90.7378%
- COc1ccccc1C(NC(=O)C(C)Cl)c1ccco1 (stereo not shown) [5-H19, 2-chloro-N-[(furan-2-yl)(2-methoxyphenyl)methyl]propanamide] — lower, 92.1676%
- CN1CCN(C(=O)Cc2cccc(NC(=O)CCl)c2)CC1 [5-C22, 2-chloro-N-{3-[2-(4-methylpiperazin-1-yl)-2-oxoethyl]phenyl}acetamide] — lower, 98.3607%
- CCc1cnc(N2CCN(C(=O)C(C)Cl)CC2)s1 (stereo not shown) [7-C20, 2-chloro-1-[4-(5-ethyl-1,3-thiazol-2-yl)piperazin-1-yl]propan-1-one] — lower, 99.2151%
- C=CC(=O)N1CC2(CCOCC2)C1c1ccco1 (stereo not shown) [1-D22, 1-[1-(furan-2-yl)-7-oxa-2-azaspiro[3.5]nonan-2-yl]prop-2-en-1-one] — higher, 112.527%
- N#CC(=Cc1cccc(F)c1)C(=O)NCCc1ccccc1 [8-J22, 2-cyano-3-(3-fluorophenyl)-N-(2-phenylethyl)prop-2-enamide] — lower, 66.39%
- N#CC(=Cc1cccs1)C(=O)Nc1cccc2ncccc12 [8-D20, 2-cyano-N-(quinolin-5-yl)-3-(thiophen-2-yl)prop-2-enamide] — lower, 100.913%
- CC(C)N(c1ccccc1)c1ccc(NC(=O)CCl)cc1 [6-I17, 2-chloro-N-{4-[phenyl(propan-2-yl)amino]phenyl}acetamide] — higher, 116.78%
- COC(=O)c1c(C)[nH]c(C(=O)C(C)Cl)c1C (stereo not shown) [10-D22, methyl 5-(2-chloropropanoyl)-2,4-dimethyl-1H-pyrrole-3-carboxylate] — higher, 111.25%
- CC(Cl)C(=O)NCC(=O)Nc1ccc(F)c(F)c1F (stereo not shown) [4-D20, 2-chloro-N-{[(2,3,4-trifluorophenyl)carbamoyl]methyl}propanamide] — higher, 134.921%
- CC(Cl)C(=O)N1CCc2ncsc2C1 (stereo not shown) [7-C06, 2-chloro-1-{4H,5H,6H,7H-[1,3]thiazolo[5,4-c]pyridin-5-yl}propan-1-one] — lower, 83.2025%
- CC(C)Cc1nnc(NC(=O)CCl)s1 [4-A17, 2-chloro-N-[5-(2-methylpropyl)-1,3,4-thiadiazol-2-yl]acetamide] — higher, 128.442%
- C=CC(=O)NCC1CNC(=O)c2ccccc21 (stereo not shown) [2-F17, N-[(1-oxo-1,2,3,4-tetrahydroisoquinolin-4-yl)methyl]prop-2-enamide] — higher, 113.142%
- COc1ccc(C=C(C#N)C(=O)Nc2ccc([N+](=O)[O-])cc2)cc1 [8-C05, 2-cyano-3-(4-methoxyphenyl)-N-(4-nitrophenyl)prop-2-enamide] — higher, 123.817%
- C=CC(=O)N[C@@H](CC(N)=O)c1cccc(Cl)c1 [1-I15, N-[(1S)-2-carbamoyl-1-(3-chlorophenyl)ethyl]prop-2-enamide] — higher, 118.154%
- O=C1C=CC(=O)N1c1ccc(Oc2ccccc2)cc1 [10-F17, 1-(4-phenoxyphenyl)-2,5-dihydro-1H-pyrrole-2,5-dione] — lower, 36.875%
- O=C(CCl)NCCc1cccs1 [5-L09, 2-chloro-N-[2-(thiophen-2-yl)ethyl]acetamide] — lower, 102.732%
- N#CC(=Cc1cccc2ccccc12)C(=O)NCc1ccccc1 [8-O19, N-benzyl-2-cyano-3-(naphthalen-1-yl)prop-2-enamide] — lower, 104.896%
- CCCC(=O)N1CCC(NC(=O)CCl)c2ccccc21 (stereo not shown) [6-E16, N-(1-butanoyl-1,2,3,4-tetrahydroquinolin-4-yl)-2-chloroacetamide] — lower, 92.5366%
- Cc1cc(F)c(C(=O)CCl)cc1F [10-L19, 2-chloro-1-(2,5-difluoro-4-methylphenyl)ethan-1-one] — higher, 135%
- Cc1ccccc1N(CC(=O)N1CCCCC1)C(=O)C(C)Cl (stereo not shown) [7-G20, 2-chloro-N-(2-methylphenyl)-N-[2-oxo-2-(piperidin-1-yl)ethyl]propanamide] — lower, 106.75%
- C=CC(=O)NCc1csc2nccn12 [3-J13, N-({imidazo[2,1-b][1,3]thiazol-3-yl}methyl)prop-2-enamide] — higher, 118.764%
- O=C(CCl)NCC1(c2ccccc2)CC1 [5-E15, 2-chloro-N-[(1-phenylcyclopropyl)methyl]acetamide] — lower, 103.097%
- C=CC(=O)N1CCC(Cc2ccccc2)CC1 [2-O10, 1-(4-benzylpiperidin-1-yl)prop-2-en-1-one] — lower, 80.0696%
- C=CC(=O)N1CCC(C(=O)Nc2nc3cc(F)ccc3n2CC)CC1 [3-I13, N-(1-ethyl-5-fluoro-1H-1,3-benzodiazol-2-yl)-1-(prop-2-enoyl)piperidine-4-carboxamide] — higher, 110.405%
- O=C(CCl)N1C[C@@H]2C[C@H]1CN2c1ccccc1 [5-E22, 2-chloro-1-[(1S,4S)-5-phenyl-2,5-diazabicyclo[2.2.1]heptan-2-yl]ethan-1-one] — lower, 102.732%
- C=CC(=O)N1CCC(C(=O)N2CC=CCC2)(c2ccccc2)CC1 [3-J06, 1-[4-phenyl-4-(1,2,3,6-tetrahydropyridine-1-carbonyl)piperidin-1-yl]prop-2-en-1-one] — lower, 89.5081%
- CC1CN(c2ccc(NC(=O)C(C#N)=Cc3ccco3)cc2)CC(C)O1 (stereo not shown) [9-J09, 2-cyano-N-[4-(2,6-dimethylmorpholin-4-yl)phenyl]-3-(furan-2-yl)prop-2-enamide] — lower, 92.5843%
- CC(Cl)C(=O)NCc1ccon1 (stereo not shown) [7-I13, 2-chloro-N-[(1,2-oxazol-3-yl)methyl]propanamide] — lower, 91.6797%
- C=CC(=O)N(CC)Cc1nc2ccsc2c(=O)[nH]1 [3-P16, N-ethyl-N-({4-oxo-3H,4H-thieno[3,2-d]pyrimidin-2-yl}methyl)prop-2-enamide] — lower, 82.1942%
- O=C(CCl)Nc1c(F)c(F)c(F)c(F)c1F [4-L08, 2-chloro-N-(2,3,4,5,6-pentafluorophenyl)acetamide] — lower, 104.05%
- O=C(CCl)NOCc1ccccc1 [4-H22, N-(benzyloxy)-2-chloroacetamide] — lower, 101%
- C=CC(=O)N1CC(C)c2ccc(S(N)(=O)=O)cc21 (stereo not shown) [3-L16, 3-methyl-1-(prop-2-enoyl)-2,3-dihydro-1H-indole-6-sulfonamide] — higher, 119.112%
- C=CC(=O)N1CCCC1(COC)C(N)=O (stereo not shown) [3-K07, 2-(methoxymethyl)-1-(prop-2-enoyl)pyrrolidine-2-carboxamide] — lower, 97.5185%
- C=CC(=O)N1CCC(C(=O)NC2(Cc3ccccc3)CCCC2)CC1 [3-H12, N-(1-benzylcyclopentyl)-1-(prop-2-enoyl)piperidine-4-carboxamide] — lower, 74.532%
- C=CC(=O)N1CCC(C(=O)NC2(c3ccc(F)cc3F)CCC2)CC1 [3-M04, N-[1-(2,4-difluorophenyl)cyclobutyl]-1-(prop-2-enoyl)piperidine-4-carboxamide] — lower, 92.6426%

— publication PMC11995724, “Antibiotic target discovery by integrated phenotypic and activity-based profiling of electrophilic fragments” (Cell chemical biology, 2025)
